Measurements: the supplement of paper PMC10185492
Some of the results follow. Read counts after selection give these values, which scatter widely.

system: SARS-CoV-2 3CLpro (nsp5); experiment: substrate phage enrichment score (protease-eluted vs HEPES control, +1 offset) (ratio); higher = better cleaved substrate; conditions: selection round: 4; protease elution time: 15 min
Protocol: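 Random heptapeptide substrate phage display (M13 pIII fusion, heptapeptide between an N-terminal biotinylated AviTag GLNDIFEAQKIEWHE and pIII; phages immobilised on streptavidin) eluted by cleavage with 50 nM protease in 20 mM HEPES at 37 °C. Selected phages were NGS sequenced, and the enrichment score is (reads in protease sample + 1)/(reads in HEPES blank-selection control + 1).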

Substance | substrate phage enrichment score
RAKSPSR | > 28
DVWSNKR | 2.14
TWGSALR | 7.67
SHSAPVT | 7.8
HHHHHHG | 0.581
SVERDRV | 4.25
VTPFKQQ | 6
FAGTQPF | 0.438
VAAAHHH | 0.827
RSRTLLQ | > 51
LCSQLKD | > 45
LQKMQTR | 14.6
VVWPEKE | 2.83
PDRYTKE | > 24
NHHHHGA | 1.1
ATVGSGG | 8.33
WNCKIPG | 0.103
THGRTGI | > 24
KACPKNR | > 25
SRNLGWQ | 12.3
DTVEPMS | 0.844
LQAKPYA | > 21
DLHGPMP | > 21
SEPSWSA | 6.67

Substance | substrate phage enrichment score
RSSEGLI | > 27
ADECRDA | 0.95
CGHLNRS | 0.0769
LCLNSCS | > 21
AVADLKD | > 23
QFQECFR | 3.11
THTRTET | > 71
KGRAQRN | 1.44
GTAKPAT | 0.348
VQSPPGS | 4.86
NDSLSAQ | 8.33
HLYFQGG | 3
KKHGCAD | 1.2
YSTKPLW | 11.9
LDWTMET | 5.5
GSRLRTQ | 2.67
SVPPNLR | 4.5
SESMNAE | 1.36
VKCNVDG | 2.5
VSYDVIQ | 3.4
AKTQSGR | 0.294
QAPSAKQ | 12
APWSVRQ | 0.474
SRMPVLQ | > 21

Substance | substrate phage enrichment score
KYFREYF | > 26
PCSLTDQ | 14
TENMRRY | 6.25
TGPQASR | > 26
VYPTKTC | > 26
EPGLLSR | 2.43
ASGNLKA | 1.36
TCRPKGN | > 100
AVAAHHH | 0.438
LNSHVWK | > 32
RPTMRVE | > 22
PTKRCNG | > 23
KRCETGS | > 25
FQCVPIG | > 26
VNLNGPR | > 48
PCTPGAA | 6.33
HSHSGHF | 0.517
MAAAHHH | 0.769
KGQALLD | 0.179
YRPESVG | 3.5
AAVWTEK | 1.88
VSAAHHH | 0.96
TEQTPVT | > 57
RCEPHVV | 1.9

Substance | substrate phage enrichment score
ASLGKDQ | 4.17
RCSANLR | > 44
SDETGLR | 11.4
AAAQQHH | 1.6
RTNEMRS | > 23
QYCTGCR | > 228
QPEEGSC | > 47
ESSLHVM | 0.471
FRYRMWC | 0.673
ADPSFPQ | 5
CIPGVKL | 3.38
VTQMRTP | > 68
SPSFGCT | > 22
WFDDAKG | 21
KRHQMSG | 4.1
TQSHQRT | 9
TQIPNHR | 0.25
VVLQGGS | > 67
SSASVGA | 0.714
NTTSMDR | > 24
SKLPRLQ | > 409
TPHAVLQ | > 27
QPCVTKD | > 23
QSNAALR | 2.64

Substance | substrate phage enrichment score
CCNMARD | 12.5
CFTQGAR | 0.125
ATKPADG | 1.52
LDPQPMR | > 26
AQTECAS | 20.2
GLSTLQS | > 24
MGCRRDL | 1.51
QIRKDDG | > 89
SLGEHWK | > 27
SQAPVNR | 2.15
YSPSSKA | 10.5
ITETSCR | > 23
ASGYPVS | 0.25
GCARYIR | 7.4
LLCHETC | 1
AAAHHHH | 0.67
PYLPASR | > 30
CGPSHLM | 3.27
YPKQTQG | > 21
DSDRNVN | > 50
NARFPAA | 1.73
